# Experimental data as given in the supplement of paper PMC8821664.
# Counter-ions that a name gives are not always drawn. Some of the results follow. Single values are uncertain, as repeats are few or missing. Starred links: 1 amine or outer side, 2 acyl side, 3 side chain; linkers in the order of their positions; H or OH if unused. Positions of bridges follow the written chain, without caps; N, C: chain ends. Non-standard residues stand in square brackets, D forms with d. Residues, ends and D or L forms follow the SMILES beside them. *: point of attachment. hTyr(3S-OH,4S-OH,3'-OSO3H) = N[C@H](C(=O)O)[C@H](O)[C@@H](O)c1ccc(O)c(OS(=O)(=O)O)c1; Orn(4R-OH,5R-OH) = O=C([C@H](C[C@@H](O)[C@@H](O)N[*:3])N[*:1])[*:2]; Pro(3S-OH,4S-Me) = C[C@H]1CN[C@H](C(=O)O)[C@H]1O; X2 = CCCCCOc1ccc(-c2cc(-c3ccc(C(=O)*)cc3)no2)cc1; Gln(3R-OH) = NC(=O)C[C@@H](O)[C@H](N)C(=O)O; Hyp = O=C(O)[C@@H]1C[C@@H](O)CN1
# Tested on: Beas-2B AQP5-HiBiT reporter cells
# Test: AQP5-HiBiT luminescence relative to vehicle (ratio to vehicle); higher = higher AQP5-HiBiT protein abundance
# Details: 10 µM; 18 h
# 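Further: monoclonal Beas-2B line stably carrying CMV promoter-driven AQP5-HiBiT, 5,000 cells per well in 384-well plates, lytic HiBiT plus LgBiT NanoLuc luminescence, FDA-approved drug library screen.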
row,Compound,AQP5-HiBiT luminescence
1,CCn1cc(C(=O)O)c(=O)c2cc(F)c(N3CCNC(C)C3)c(F)c21 (stereo not given) [Lomefloxacin],1.07
2,Nc1nc2c(ncn2COCCO)c(=O)[nH]1 [Aciclovir],1.02
3,CC(=O)CC(c1ccccc1)c1c(O)c2ccccc2oc1=O (stereo not given) [Warfarin],0.674
4,CNCCCC12CCC(c3ccccc31)c1ccccc12 [Maprotiline hydrochloride],1.34
5,CC(C)[C@@H]1CC[C@@H](C)C[C@H]1O [L-Menthol],0.742
6,NS(=O)(=O)c1cc(C2(O)NC(=O)c3ccccc32)ccc1Cl (stereo not given) [Chlortalidone],1.23
7,N#Cc1ccc(C(c2ccc(C#N)cc2)n2cncn2)cc1 [Letrozole],0.893
8,CCOc1nc2cccc(C(=O)O)c2n1Cc1ccc(-c2ccccc2-c2nnn[nH]2)cc1 [Candesartan],0.988
9,CCN(CC)C(=S)SSC(=S)N(CC)CC [Disulfiram],2.33
10,O=C1CC2(CCCC2)CC(=O)N1CCCCN1CCN(c2ncccn2)CC1 [Buspirone hydrochloride],1.4
11,CC(C)(C)NCC(O)COc1cccc2c1CCC(=O)N2 (stereo not given) [Carteolol hydrochloride],1.02
12,CCc1cc2c(cc1N1CCC(N3CCOCC3)CC1)C(C)(C)c1[nH]c3cc(C#N)ccc3c1C2=O [Alectinib],0.411
13,CN(C)CCN(Cc1ccccc1)c1ccccn1 [Tripelennamine hydrochloride],1.12
14,c1ccc([C@H]2CN3CCSC3=N2)cc1 [Levamisole hydrochloride],0.722
15,CNC1(C)C2CCC(C2)C1(C)C (stereo not given) [Mecamylamine hydrochloride],0.916
16,CO[C@@]1(NC(=O)CSCC#N)C(=O)N2C(C(=O)O)=C(CSc3nnnn3C)CS[C@@H]21 [Cefmetazole sodium],1.36
17,O=S(=O)(O)Oc1ccc(C(c2ccc(OS(=O)(=O)O)cc2)c2ccccn2)cc1 [Sodium picosulfate monohydrate],0.823
18,NC(CO)(CO)CO [Trometamol],1.08
19,CN[C@@H]1[C@H](O[C@H]2[C@H](O[C@H]3[C@H](O)[C@@H](O)[C@H](N=C(N)N)[C@@H](O)[C@@H]3N=C(N)N)O[C@@H](C)[C@]2(O)C=O)O[C@@H](CO)[C@H](O)[C@H]1O [Streptomycin sulfate],1
20,CC(C)c1nc(CN(C)C(=O)N[C@H](C(=O)N[C@@H](Cc2ccccc2)C[C@H](O)[C@H](Cc2ccccc2)NC(=O)OCc2cncs2)C(C)C)cs1 [Ritonavir],0.807

row,Compound,AQP5-HiBiT luminescence
1,CC(C)NCC(O)COc1ccc(COCCOC(C)C)cc1 (racemic) [(±)-Bisoprolol hemifumarate],1.33
2,CNCC(O)c1ccc(OC(=O)C(C)(C)C)c(OC(=O)C(C)(C)C)c1 (stereo not given) [Dipivefrin hydrochloride],0.673
3,CN1CC2c3ccccc3Oc3ccc(Cl)cc3C2C1 (stereo not given) [Asenapine Maleate],0.794
4,O=C(O)C1(C(=O)O)CCC1.[NH2-].[NH2-].[Pt+2] [Carboplatin],1.11
5,CC1(C)O[C@@H]2[C@@H](CO[C@@]3(COS(N)(=O)=O)OC(C)(C)O[C@@H]23)O1 [Topiramate],0.594
6,NC(=O)C(c1ccccc1)(c1ccccc1)[C@@H]1CCN(CCc2ccc3c(c2)CCO3)C1 [Darifenacin HBr],1.51
7,CCCOc1ccc(C(=O)OCCN(CC)CC)cc1N [Proparacaine hydrochloride],0.967
8,CC[C@@H]1/C=C(\C)C[C@H](C)C[C@H](OC)[C@H]2O[C@@](O)(C(=O)C(=O)N3CCCC[C@H]3C(=O)O[C@H](/C(C)=C/[C@@H]3CC[C@H](Cl)[C@H](OC)C3)[C@H](C)[C@@H](O)CC1=O)[C@H](C)C[C@@H]2OC [Pimecrolimus],0.609
9,O=C(O)CCc1nc(-c2ccccc2)c(-c2ccccc2)o1 [Oxaprozin],0.586
10,CNC(=O)c1cc(Oc2ccc(NC(=O)Nc3ccc(Cl)c(C(F)(F)F)c3)cc2)ccn1 [Sorafenib],0.138
11,COc1ccc2[nH]c([S@@+]([O-])Cc3ncc(C)c(OC)c3C)nc2c1 [Esomeprazole Sodium],0.935
12,NCC[C@H](O)C(=O)N[C@@H]1C[C@H](N)[C@@H](O[C@H]2O[C@H](CN)[C@@H](O)[C@H](O)[C@H]2O)[C@H](O)[C@H]1O[C@H]1O[C@H](CO)[C@@H](O)[C@H](N)[C@H]1O [Amikacin Sulfate Salt],0.986
13,"CCCCCOc1ccc(-c2cc(-c3ccc(C(=O)N[C@H]4C[C@@H](O)[C@@H](O)NC(=O)[C@@H]5[C@@H](O)[C@@H](C)CN5C(=O)[C@H]([C@H](O)CC(N)=O)NC(=O)[C@H]([C@H](O)[C@@H](O)c5ccc(O)c(OS(=O)(=O)O)c5)NC(=O)[C@@H]5C[C@@H](O)CN5C(=O)[C@H]([C@@H](C)O)NC4=O)cc3)no2)cc1 [Micafungin sodium] (X2-[Orn(4R-OH,5R-OH)]T[Hyp][hTyr(3S-OH,4S-OH,3'-OSO3H)][Gln(3R-OH)][Pro(3S-OH,4S-Me)]; lactam 1-C)",0.981
14,CC(C)(C(=O)O)c1ccc(C(O)CCCN2CCC(C(O)(c3ccccc3)c3ccccc3)CC2)cc1 (stereo not given) [Fexofenadine hydrochloride],1.34
15,O=C(O)CCCCCCCC(=O)O [Azelaic acid],0.789
16,Cc1cc(C(C)(C)C)c(O)c(C)c1CC1=NCCN1 [Oxymetazoline hydrochloride],1.05
17,Nc1nc(=O)n([C@@H]2CS[C@H](CO)O2)cc1F [Emtricitabine],0.851
18,C#C[C@]1(O)CC[C@H]2[C@@H]3CCC4=CC(=O)CC[C@@H]4[C@H]3CC[C@@]21C [Norethindrone],1.07
19,OC(CNCC(O)C1CCc2cc(F)ccc2O1)C1CCc2cc(F)ccc2O1 (stereo not given) [Nebivolol hydrochloride],1.16
20,C[C@]12CCC(=O)C=C1CC[C@@H]1[C@@H]2[C@@H](O)C[C@@]2(C)[C@H]1CC[C@]2(O)C(=O)CO [Hydrocortisone],0.819
